We go through 42 sequences from paper PMC7819943, “Rice protein-binding microarrays: a tool to detect cis-acting elements near promoter regions in rice”.

Some of the results follow.

This experiment concerns the target T1, OsWOX13 (Oryza sativa, UniProt Q5QMM3 1-267).
T1 sequence: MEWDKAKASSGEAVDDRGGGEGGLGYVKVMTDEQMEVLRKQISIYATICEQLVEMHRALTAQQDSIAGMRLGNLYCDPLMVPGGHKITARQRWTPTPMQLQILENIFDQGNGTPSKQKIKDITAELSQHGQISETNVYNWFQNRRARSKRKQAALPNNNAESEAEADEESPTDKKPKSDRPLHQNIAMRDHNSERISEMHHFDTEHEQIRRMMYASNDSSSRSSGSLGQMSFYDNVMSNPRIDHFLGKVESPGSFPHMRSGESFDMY
Description: protein-binding microarray (RPBM); PBS, 2% BSA, 51.3 ng/ul salmon testes DNA, 50 uM zinc acetate, 200 nM TF, 25 C, 1 h; high values mean tight binding. Conditions: protein: recombinant; tags: N-terminal polyhistidine and DsRed monomer fusion (pET32a); label: CyDye5-dUTP incorporated in the synthesized complementary strand; 3' TTTTT single-stranded linker to array surface; dsDNA, one strand shown. The method, boiled down:
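In PBS with 2% BSA, salmon testes DNA and 50 µM zinc acetate, 200 nM protein was incubated on a custom Agilent array at 25 °C for 1 h and then washed off. The array had been made double-stranded by primer extension with Cy5-dUTP and blocked with 2% BSA. The proteins were transcription factors fused N-terminally to polyhistidine and DsRed, expressed in E. coli BL21-CodonPlus and purified on Ni–NTA. The binding signal is per-feature fluorescence intensity (arbitrary units) from an Axon 4000B scanner.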
For the sequence “AATTAATAAAATAAATCTATTACAGTTAACTAAAGGTATTCGGAGTCACCTAGTGCAG”, the binding signal was 5780 fluorescence intensity (a.u.).
Take “ACTAATTACACAGTACGCCAGGAAATTGCGAGACGAACCTCGGAGTCACCTAGTGCAG”: the binding signal was 23100 fluorescence intensity (a.u.).
Turning to “TCTAATAAATTTAAGGATATACAGGTTCAAGTAATACGCCCGGAGTCACCTAGTGCAG”, the binding signal is 9660 fluorescence intensity (a.u.).
With “ATAATTACATTTGTTGGCCCATAACGAGTTCTTTCACAATCGGAGTCACCTAGTGCAG”, the binding signal was 4260 fluorescence intensity (a.u.).
Turning to “CTTTCCAATTTGTTTAATTACCTGCTAACTTTGCTGCATCCGGAGTCACCTAGTGCAG”, the binding signal was 14300 fluorescence intensity (a.u.).
“GGGTAGACTTAGACTGACATGGGAGTTGGAAAATGAATTGCGGAGTCACCTAGTGCAG”: the binding signal is 3340 fluorescence intensity (a.u.).
In the case of “TAACTAATTTTGACCGGGTAGCATATAGTTTTGGGCTTTTCGGAGTCACCTAGTGCAG”, the binding signal is 9950 fluorescence intensity (a.u.).
As to “ATAATACTCAATTAAGAACCTGTTAATGGTTTTCCTTGCACGGAGTCACCTAGTGCAG”, the binding signal was 13600 fluorescence intensity (a.u.).
Consider “GTTTTGTTGTTGCCAGTTTAGTCAATTACACTCTACTGATCGGAGTCACCTAGTGCAG”, for which the binding signal was 3580 fluorescence intensity (a.u.).
Turning to “TTACAATGGGATAGACATATTAATTATTCTCTCACACGAACGGAGTCACCTAGTGCAG”, the binding signal was 6490 fluorescence intensity (a.u.).
As for “ATTGGGTAATCAATAATCCTTTCCTACTAGATTAATGTCTCGGAGTCACCTAGTGCAG”, the binding signal is 5090 fluorescence intensity (a.u.).
Regarding “GATGAAACATTTGACATGAACTAAATTTTGTTCGGCAGTTCGGAGTCACCTAGTGCAG”, the binding signal was 5180 fluorescence intensity (a.u.).
On to “TTTAATTTTAACATGAACTAAACACGCCCCTAACAAGCAGCGGAGTCACCTAGTGCAG”, for which the binding signal is 18400 fluorescence intensity (a.u.).
In the case of “TAAACCTAATTAATCCATAATTAGAGAATGTTTACGGTAGCGGAGTCACCTAGTGCAG”, the binding signal is 27000 fluorescence intensity (a.u.).
Consider “ATAACTATTTAATAAATTAATAAATTTTAAGTAAAATCATCGGAGTCACCTAGTGCAG”, for which the binding signal is 7430 fluorescence intensity (a.u.).
In the case of “TAGGATTTGACCATAGTAAATTAATTTGGAGGAATTGTTTCGGAGTCACCTAGTGCAG”, the binding signal is 3990 fluorescence intensity (a.u.).
As to “TATTAACTTGAGATAATTGGACTCCTAATTACAGCTCGTGCGGAGTCACCTAGTGCAG”, the binding signal was 33300 fluorescence intensity (a.u.).
In the case of “TTGATTATTGGGAAACGCTGAAATTCTATACGGAGGTTACCGGAGTCACCTAGTGCAG”, the binding signal is 11000 fluorescence intensity (a.u.).
Consider “TTGATTTTAGTTATATTGGCTTAGACTTTTGAGCCCATCCCGGAGTCACCTAGTGCAG”, for which the binding signal is 8920 fluorescence intensity (a.u.).
As for “GGTTGGGACGTGGAGAGTTGTTTGTAGATCGAGTTGAAAGCGGAGTCACCTAGTGCAG”, the binding signal was 3700 fluorescence intensity (a.u.).
The result for “ACTTAGATTAATTACATATTCCGCTTGTAAACTGCGAGACCGGAGTCACCTAGTGCAG” reads 42200 fluorescence intensity (a.u.); that for “ACCCATCAAATCACTGTATAACACTGTTTGACATTATTTCCGGAGTCACCTAGTGCAG”, 3840 fluorescence intensity (a.u.).
“TTTAATTGGAATATAATCATGTGATATCTTGTTATAACGACGGAGTCACCTAGTGCAG”: the binding signal was 48600 fluorescence intensity (a.u.).
With “TTAAATAATTTTATTTTGTGGTGATGTTGGTTTGGTTATGCGGAGTCACCTAGTGCAG”, the binding signal was 17000 fluorescence intensity (a.u.).
On to “AATAATTTATGGGCTTAAACAAACAAAGTACTTCTGAAATCGGAGTCACCTAGTGCAG”, for which the binding signal was 24800 fluorescence intensity (a.u.).
With “AACCAATCACACAGTCTGCATATAGATTACGAGACGAATCCGGAGTCACCTAGTGCAG”, the binding signal was 22200 fluorescence intensity (a.u.).
As to “TTTGGATTGGGTTTGGTGGTTGGGTGGGAGGGAGGGAGCTCGGAGTCACCTAGTGCAG”, the binding signal is 18700 fluorescence intensity (a.u.).
With “AATTGCTGTTGATTTGCCACTACCACTCTCCCCAACAAGTCGGAGTCACCTAGTGCAG”, the binding signal is 6370 fluorescence intensity (a.u.).
On to “TCATTGATGACGTGAATAATAATAAAAGATTAGGGCTTAACGGAGTCACCTAGTGCAG”, for which the binding signal was 11800 fluorescence intensity (a.u.).
The result for “GTAAAATCAATCTCGGTTTACCATATGCTAGCGACAGAGACGGAGTCACCTAGTGCAG” reads 6030 fluorescence intensity (a.u.); that for “CAGGATTAGCAAGTCATCTTACTATCTAATTAGGGCAGCACGGAGTCACCTAGTGCAG”, 7900 fluorescence intensity (a.u.).
For the sequence “GTAATTAACAGCAATCAGCAAGTGGCCTAATTGCCAACCTCGGAGTCACCTAGTGCAG”, the binding signal is 56700 fluorescence intensity (a.u.).
As for “ACAGATTAGATTTCGATCACGTTTGAGGATCACAAAGTGACGGAGTCACCTAGTGCAG”, the binding signal is 8800 fluorescence intensity (a.u.).
As for “ACTAAATTTTACGACCCTTCTCCACTAACATGAGCTCCTCCGGAGTCACCTAGTGCAG”, the binding signal is 7820 fluorescence intensity (a.u.).
In the case of “CCTTGGTTTTAATTAATTCAATTTCTCGCCTCTTTTCTTCCGGAGTCACCTAGTGCAG”, the binding signal was 10300 fluorescence intensity (a.u.).
Turning to “TTTGAGACATGATTGCAAAATGTAATAGCCTATAACTTGACGGAGTCACCTAGTGCAG”, the binding signal was 16700 fluorescence intensity (a.u.).
For the sequence “AACTCTAAAATCACTTTTAAAATTTTAAATTTTGTCTACGCGGAGTCACCTAGTGCAG”, the binding signal is 3650 fluorescence intensity (a.u.).
With “TTGACAGTCTGTTCAACTAACCAACTGTGATGTTATCGATCGGAGTCACCTAGTGCAG” the figure was 3570 fluorescence intensity (a.u.); with “TCCTAAATTTAGGTTGAAGAGTTGGGACTAGAGTGGAGTTCGGAGTCACCTAGTGCAG”, 9060 fluorescence intensity (a.u.).
The result for “TTATGGTTGATTAAAATAGACGAAATGACCCACATCTTTACGGAGTCACCTAGTGCAG” reads 7760 fluorescence intensity (a.u.).
Consider “AAAGCGCGTGATTGCCGAAGTGCCGGCCCACATAGGCCCACGGAGTCACCTAGTGCAG”, for which the binding signal was 12700 fluorescence intensity (a.u.).
With “ATGAACTAATTGATGGGAATATCTACTACTACTACCAGGTCGGAGTCACCTAGTGCAG”, the binding signal is 44600 fluorescence intensity (a.u.).
